The other results are listed elsewhere or left out.
The sequences below were run against T1, VDR (Homo sapiens) (UniProt P11473). Settings: 270 nM, no RXRa, PBS pH 7.4, 2% milk, 0.02% Triton X-100, 1 mM DTT, BSA, 0.4 mg/ml salmon testes DNA; double strand, one strand shown.
T1 sequence: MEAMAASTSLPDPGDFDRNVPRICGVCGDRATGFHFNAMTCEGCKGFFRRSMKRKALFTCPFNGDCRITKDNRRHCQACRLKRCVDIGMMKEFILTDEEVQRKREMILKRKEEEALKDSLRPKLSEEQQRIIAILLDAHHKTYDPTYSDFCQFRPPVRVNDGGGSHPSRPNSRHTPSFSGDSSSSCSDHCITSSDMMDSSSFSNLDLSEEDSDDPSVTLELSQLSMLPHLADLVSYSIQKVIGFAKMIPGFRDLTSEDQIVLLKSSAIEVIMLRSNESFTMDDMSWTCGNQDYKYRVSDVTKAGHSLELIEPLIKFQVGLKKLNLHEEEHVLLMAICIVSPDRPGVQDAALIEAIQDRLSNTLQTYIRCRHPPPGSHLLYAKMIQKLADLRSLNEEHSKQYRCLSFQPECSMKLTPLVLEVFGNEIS
“GCATCTGCATAGAGCTAGAGCTATTGATTCAAAGAGGCGATTGACAGCGTAGAATGAAGG” was tested, and the binding signal (PBM z-score against 500 random probes) was -1.55.
Sequence “GCTGGAAGATGAAGAAGAACTATTGCTCGATGGAGAGCGATTGACAGCGTAGAATGAAGG” has a binding signal (PBM z-score against 500 random probes) of -0.49.
Work on “GCTCCCAGCCACTCAGGAGGCTGAGGCAGGAGAATTGCGATTGACAGCGTAGAATGAAGG” yielded a binding signal (PBM z-score against 500 random probes) of -0.84.

Reference: paper PMC6555819
